Source: paper PMC4336329 (PLoS ONE, 2015)
Out of some 310,000 compounds screened, about 2,200 (0.71%) showed an effect of 50% or more. Effects have a minus sign here. Some of the results follow.

target: human ether-à-go-go-related gene (hERG) potassium channel (human, UniProt Q12809); experiment: primary screen, population patch clamp on CHO cells stably expressing hERG
Sequence (Q12809 whole entry, looked up): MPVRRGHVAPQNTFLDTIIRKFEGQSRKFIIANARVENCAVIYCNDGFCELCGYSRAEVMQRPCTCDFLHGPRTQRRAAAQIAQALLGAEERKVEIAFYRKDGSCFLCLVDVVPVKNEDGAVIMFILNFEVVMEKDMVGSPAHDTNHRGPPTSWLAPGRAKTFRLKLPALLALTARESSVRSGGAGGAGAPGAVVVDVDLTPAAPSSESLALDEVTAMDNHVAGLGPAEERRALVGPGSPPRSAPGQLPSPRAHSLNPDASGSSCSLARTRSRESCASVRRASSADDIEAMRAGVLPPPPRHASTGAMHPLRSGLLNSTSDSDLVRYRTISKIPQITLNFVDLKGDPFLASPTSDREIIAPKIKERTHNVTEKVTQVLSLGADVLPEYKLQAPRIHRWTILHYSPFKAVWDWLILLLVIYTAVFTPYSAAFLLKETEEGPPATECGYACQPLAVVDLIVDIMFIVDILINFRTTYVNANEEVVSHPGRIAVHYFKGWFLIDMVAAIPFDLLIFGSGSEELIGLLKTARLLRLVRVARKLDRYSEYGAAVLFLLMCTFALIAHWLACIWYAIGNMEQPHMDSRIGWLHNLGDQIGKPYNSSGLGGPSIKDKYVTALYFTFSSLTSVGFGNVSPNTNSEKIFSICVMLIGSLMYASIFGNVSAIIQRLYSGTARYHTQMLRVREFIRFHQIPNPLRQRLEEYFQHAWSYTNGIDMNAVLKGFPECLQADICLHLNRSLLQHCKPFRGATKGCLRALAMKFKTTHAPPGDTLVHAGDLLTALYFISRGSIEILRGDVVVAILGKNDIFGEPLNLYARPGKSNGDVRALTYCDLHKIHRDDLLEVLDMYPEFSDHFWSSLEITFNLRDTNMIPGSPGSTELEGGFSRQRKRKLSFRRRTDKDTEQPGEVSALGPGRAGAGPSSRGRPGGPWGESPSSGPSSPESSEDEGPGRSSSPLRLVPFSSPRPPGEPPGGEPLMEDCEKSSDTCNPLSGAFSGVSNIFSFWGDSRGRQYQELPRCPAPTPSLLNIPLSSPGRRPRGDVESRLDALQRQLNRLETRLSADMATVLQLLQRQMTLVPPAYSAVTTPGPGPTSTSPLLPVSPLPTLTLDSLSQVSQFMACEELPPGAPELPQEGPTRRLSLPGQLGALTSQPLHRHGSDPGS

| SMILES | hERG current change (%, negative = inhibition) at 1uM |
| --- | --- |
| Cc1nnc(NC(=O)c2nc(S(=O)(=O)Cc3ccccc3)ncc2Cl)s1 | 5.07% |
| Cc1ccc2cc(CCNC(=O)CCCc3ccccc3)c(=O)[nH]c2c1 | 13.5% |
| O=C(COC(=O)c1cccc2ccccc12)NCCCc1ccccc1 | 6.33% |
| CCOC(=O)C1/C(=N\O)CC(C)(O)C(C(=O)OCC)C1c1ccc(N(C)C)cc1 (stereo not drawn) | 12.6% |
| O=C(COc1ccc(F)cc1)N(Cc1ccco1)C1CCS(=O)(=O)C1 (stereo not drawn) | 7.32% |
| O=c1cnn(-c2ccccc2)c(-c2ccccc2)c1 | 7.62% |
| COC(=O)CCCC1=CC2=C(c3ccccc3)C(=O)C(C)(OC(=O)C3CCCC3)C(=O)C2=CN1CCN1CCOCC1 (stereo not drawn) | 8.02% |
| CC(C)(C)c1ccc(Oc2ccc(NC(=O)C3CC=CCC3C(=O)O)cc2)cc1 (stereo not drawn) | 9.61% |
| CC(OC(=O)c1cn(-c2ccccc2)nc1-c1cccnc1)C(N)=O (stereo not drawn) | 3.31% |
| Cc1ccccc1C(=O)NNC(=O)c1cccn1C | -0.066% |
| CSc1cccc(NS(=O)(=O)c2ccc(F)cc2)c1 | 7.73% |
| COc1ccc(/C=C/C(=O)NCCc2ccc(OC)c(OC)c2)cc1 | -0.514% |
| O=C(CN1C(=O)/C(=C/c2ccccc2)Sc2ccccc21)NCCCN1CCOCC1 | 10.3% |
| COC(=O)/C=c1/sc2n(c1=O)CCN=2 | 8.53% |
| c1cncc(-c2cnc3ccccc3c2)c1 | 12.2% |
| CC(C)CCNC(=O)CCc1nnc(Cc2c[nH]c3ccccc23)o1 | 12.1% |
| Cc1nc(-c2ccccc2)sc1C1(C)CC(c2ccc([N+](=O)[O-])cc2)=NO1 (stereo not drawn) | 14.8% |
| Cc1cc(NS(=O)(=O)c2ccc(NC(=O)N[C@H](C(=O)O)C(C)C)cc2)no1 | 39.8% |
| CCCCC1=CC2=C(c3ccco3)C(=O)C(C)(OC(=O)c3ccc(OC)cc3)C(=O)C2=CN1c1ccccc1 (stereo not drawn) | 12.6% |
| COc1ccc(OC)c(CN2CCC(C(=O)N(C)CCc3ccc(OC)c(OC)c3)CC2)c1.O=C(O)C(=O)O | 4.75% |
| Cc1ccc(NS(=O)(=O)c2cc(Br)cnc2N)cc1C | 10.5% |
| O=[N+]([O-])c1ccc(F)cc1F | 8.57% |

| SMILES | hERG current change (%, negative = inhibition) at 1uM |
| --- | --- |
| CC#CCN1c2ccccc2[C@]23C[C@@H](C(=O)OC)N(C(C)=O)C2=NC(C(=O)OC)=C(C(=O)OC)[C@H]13 | 6.12% |
| CCN(CC)S(=O)(=O)c1ccc2nc(CCl)[nH]c2c1 | -5.27% |
| O=C(NC1CCCC1)C1CCC(CNS(=O)(=O)c2cccs2)CC1 (stereo not drawn) | -1.74% |
| CC(=O)CSc1nc2cc3c(cc2cc1C#N)OCCO3 | 10.8% |
| Cc1nc(NC(=O)c2cccc(Cl)c2)sc1C(=O)N1CCCCC1 | 15.4% |
| Cc1c(C(=O)Nc2ccccc2-c2ccccc2)cccc1[N+](=O)[O-] | -3.24% |
| COc1cccc(N2C(=O)CC(N3CCC(C(N)=O)(N4CCCCC4)CC3)C2=O)c1 (stereo not drawn) | 0.148% |
| CC1Cc2ccccc2N1C(=O)COC(=O)c1cc(Br)ccc1O (stereo not drawn) | 15.6% |
| Cc1cc2c(cc1C)C(c1cc(Br)ccc1F)CC(=O)N2 (stereo not drawn) | 6.17% |
| O=C(COc1ccc(Cl)cc1)Nc1ccc(NC(=O)c2ccco2)cc1 | 14.4% |
| O=C(NC1CCCC1)C(c1ccncc1)N(C(=O)c1csnn1)C1CCCC1 (stereo not drawn) | 2.4% |
| C=CCn1c(C)c(C(C)=O)c(SC)nc1=S | -8.31% |
| c1ccc(Cn2nnc(CNc3ccccc3)c2-c2c(CNc3ccccc3)nnn2Cc2ccccc2)cc1 | 7.46% |
| O=C(c1ccc2ccccc2c1)C1CCCN(C(=O)c2cnccn2)C1 (stereo not drawn) | 4.65% |
| N/C(=N\OC(=O)c1cc(-c2ccccc2)nc2ccccc12)c1ccccn1 | 11.9% |
| COc1ccccc1N1CCN(C(=O)C2CCN(S(=O)(=O)c3ccccc3)CC2)CC1 | 0.673% |
| NS(=O)(=O)c1ccc(CCNC(=O)CNCCc2ccccc2)cc1 | 14.8% |
| CCOc1cc(C(c2c(C)[nH][nH]c2=O)c2c(C)[nH][nH]c2=O)ccc1O | 5.19% |
| O=C(COc1ccc(=O)n(-c2ccccc2)n1)Nc1ccccc1 | 4.75% |
| CCCCCOC(=O)Cn1c(N2CCCCCC2)nc2c1c(=O)[nH]c(=O)n2C | 3.51% |
| COCCN(CCOC)S(=O)(=O)c1ccc(C(=O)Nc2ccncc2)cc1 | 8.14% |
| O=C(c1ccco1)N1CCN(S(=O)(=O)c2c(Cl)cccc2Cl)CC1 | 4.68% |

| SMILES | hERG current change (%, negative = inhibition) at 1uM |
| --- | --- |
| CC(C)c1cc(CNC(=O)CCc2nnc(CCCCc3ccccc3)o2)on1 | 6.12% |
| C=C(C)CSc1nc(N)c2c3c(sc2n1)CCC3 | -1.87% |
| c1ccc(-c2nnc(SCc3nc4ccccc4[nH]3)n2Cc2ccco2)nc1 | -0.975% |
| N#Cc1c(C(F)(F)F)cc(-c2ccc(F)cc2)[nH]c1=O | 12.7% |
| COc1cc2c(cc1OC)CN(S(=O)(=O)c1cccs1)CC2 | -2.79% |
| Cc1ccccc1C(=O)c1c[nH]c(C(=O)NCCc2ccccn2)c1 | 2.15% |
| O=C(Nc1ccccc1Br)c1cccc2ccccc12 | 8.49% |
| CCOC(=O)c1sc(N)c(C(=O)OC)c1C | 2.01% |
| O=S(=O)(/C(=C/c1ccc(C(F)(F)F)cc1)c1nc2ccccc2[nH]1)c1ccccc1 | 5.64% |
| COc1ccccc1N1C(=O)C2C3C=CC(CC3)C2C1=O (stereo not drawn) | 12.2% |
| COC(=O)c1ccc(/C=C2\N=C(SC)SC2=O)cc1 | 9.49% |
| CCCS(=O)(=O)Nc1c(C(=O)O)[nH]c2ccccc12 | 12.4% |
| CC(C)CN(C(=O)CSc1nnc(C2CC2)n1-c1ccccc1)C1CCS(=O)(=O)C1 (stereo not drawn) | -0.968% |
| c1ccc(SSc2ccccn2)nc1 | 8.37% |
| O=C(CC1SC(N2CCCCC2)=NC1=O)Nc1ccc(C(=O)NCCc2ccc(F)cc2)cc1 (stereo not drawn) | 11.6% |
| Cc1cc(NS(=O)(=O)c2ccc(NC(=O)CSc3nc4sc(C)c(C)c4c(=O)[nH]3)cc2)no1 | -1.81% |
| CCOC(=O)c1ccc(NC(=O)CSc2nc3c(c(=O)n2-c2ccccc2OC)SCC3)cc1 | 13.7% |
| C/C(=N\Nc1nc(C)c(C)s1)c1ccc([N+](=O)[O-])cc1 | 7.95% |
| CC(Oc1ccc(Cl)cc1Cl)C(=O)N(Cc1ccco1)C1CCS(=O)(=O)C1 (stereo not drawn) | 0.185% |
| Cc1ccc(S(=O)(=O)NCC(=O)N(CC(=O)NCC2CCCO2)Cc2ccccc2Cl)cc1 (stereo not drawn) | 9.29% |
| CC(=O)c1cn(-c2ccc(Cl)cc2)c(=O)n(Cc2ccc(F)cc2)c1=O | 9.43% |
| Cc1ccc(C2c3[nH]c4ccccc4c3C[C@H]3C(=O)N(c4ccccc4C(=O)N4CCC[C@@H]4C(=O)O)C(=O)N23)cc1 (stereo partly drawn) | 5.33% |

| SMILES | hERG current change (%, negative = inhibition) at 1uM |
| --- | --- |
| CCCCOc1ccc(/C=N/NC(=O)c2nnn(-c3nonc3N)c2CN2CCCCCC2)cc1 | 12.6% |
| COC(C(=O)Nc1ccc(Cl)cc1C)c1ccccc1 (stereo not drawn) | 6.66% |
| CC(C)NC(=O)COc1coc(CN2CCN(Cc3ccccc3)CC2)cc1=O | 16.6% |
| CCNC(=O)NC(=O)CSc1ccc(S(=O)(=O)N2CCCCC2)cn1 | 9.19% |
| Cc1cc(C)c(S(=O)(=O)Nn2cnnc2)c(C)c1 | 15.5% |
| CCOC(=O)N1CCN(C(=O)CS(=O)Cc2nc(-c3ccc(OC)c(OC)c3)oc2C)CC1 (stereo not drawn) | 10.5% |
| CC(C)(C)c1ccc(OC(=O)c2cccnc2)cc1 | 3.97% |
| Cc1nc2ccccc2c(=O)n1CCCn1ccnc1 | 0.288% |
| COc1ccc(NC(=O)CS(=O)CC(=O)NCC2OCCc3ccccc32)cc1 (stereo not drawn) | 7.41% |
| COC(=O)C1=C(C)N(c2cccc(OC)c2)C(=O)/C1=C\c1ccco1 | -2.59% |
| COC(=O)/C=C/C(=O)NCc1ccco1 | 12.6% |
| Cc1cc(NCc2ccco2)n2ncnc2n1 | 10.4% |
| CCOc1ccc(CNC(c2ccccc2)c2ccccc2)cc1.Cl | 11.9% |
| CC1c2nc3ccccc3n2C(CC(=O)NCCCN2CCOCC2)C(=O)N1Cc1ccccc1 (stereo not drawn) | 2.29% |
| COc1cc(CNc2ccc(N3CCOCC3)cc2)ccc1OCC(=O)NC(C)(C)C | 14.9% |
| COC(=O)C(C(=O)OC)=C(/C=C/C=C/N(C)C)N(C)C | 5.52% |
| COC(=O)COc1ccc(S(=O)(=O)Nc2ccc3c(c2)OCO3)cc1Cl | 8.17% |
| COc1ccccc1C(=O)NNC(=O)c1sccc1-n1cccc1 | 14.5% |
| CCn1c(CSc2nc(C)cc(C)n2)nnc1SCC(=O)Nc1cccc2ccccc12 | 7.19% |
| CCCS(=O)(=O)c1nc(S(=O)(=O)c2ccc(C)cc2)c(N2CCC(O)CC2)s1 | 17% |
| COC(=O)C1=C(C)N(CCCC(=O)O)C(=O)NC1c1cccc(Cl)c1Cl (stereo not drawn) | 5.52% |
